Data published in the supplement of paper PMC3334620.
The full ranking holds about 33,000 sequences; the median of “E-score (-0.5 to 0.5)” is about -0.035, and the highest 2% start at about 0.34. Some of the results follow.

molecular target: T1, Mot3 (UniProt P54785); experiment: PBM E-score (8-mer binding enrichment) (E-score (-0.5 to 0.5)); higher = stronger / more preferred TF binding; most listed sequences are background and not binding sites; conditions: protein concentration: 200 nM; construct: GST-full length
T1 sequence: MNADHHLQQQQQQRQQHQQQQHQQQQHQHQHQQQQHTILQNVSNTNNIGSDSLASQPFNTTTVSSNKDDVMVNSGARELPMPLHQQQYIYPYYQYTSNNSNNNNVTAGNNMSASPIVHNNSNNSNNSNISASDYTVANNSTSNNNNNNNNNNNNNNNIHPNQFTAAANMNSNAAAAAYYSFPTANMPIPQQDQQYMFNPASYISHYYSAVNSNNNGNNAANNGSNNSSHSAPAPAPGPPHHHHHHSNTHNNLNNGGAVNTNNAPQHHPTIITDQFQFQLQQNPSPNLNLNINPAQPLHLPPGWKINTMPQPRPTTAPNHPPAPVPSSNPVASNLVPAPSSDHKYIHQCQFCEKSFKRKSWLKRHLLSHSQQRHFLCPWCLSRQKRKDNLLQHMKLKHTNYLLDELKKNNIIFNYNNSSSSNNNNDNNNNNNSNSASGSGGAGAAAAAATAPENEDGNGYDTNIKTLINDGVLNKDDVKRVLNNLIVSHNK
How it was run: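 Universal all-10-mer Agilent arrays, fresh or stripped once, were converted to double-stranded form by primer extension. GST-tagged yeast transcription factors from PURExpress in vitro transcription/translation, full-length or DNA-binding domain only, were applied at about 100-200 nM and detected with fluorescent anti-GST. After masliner normalisation, the Universal PBM Analysis Suite scored each ungapped eight-base word together with its reverse complement by E-score.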

Sequence	PBM E-score
ATATTGCG	-0.182
ACGGTGAT	-0.125
AGCAACAA	0.0896
CAACGCGC	0.245
AGGAGGGA	-0.144
GTTTCAAA	0.0317
AGGTCGCA	-0.26
ACATACTC	0.0698
AATGTAGC	-0.121
ACGGCAGC	0.119
CGTAGTGA	0.0533
AGATAAAT	0.0522
GACACCAC	-0.184
ATTTTGCC	0.257
ATTGGGTG	-0.18
ACAGAGAT	0.0802
CACGCACG	0.15
GTCCGGAA	-0.0613
ACTAGGCA	0.425
ACCGTGGG	-0.203
TGCAGTAA	0.0245
CATCGTGG	-0.216
AACACCGC	0.0465
AAAATCAA	0.0822
CCACCTGA	-0.252

Sequence	PBM E-score
GGAACGCC	0.104
ACGGCCTG	-0.251
ATTTGCAA	0.0602
AGTTCGGA	-0.0713
ATCACTAC	-0.00093
TGTCTTAA	0.123
TAAAGAGA	0.058
GTCACTCA	-0.119
CAGGCGGA	-0.112
CAGCGATC	-0.188
TGATAACA	0.22
GCAGCTCA	-0.304
ACTGCGTG	-0.0888
GCAATCTA	0.0532
CGGATCGC	-0.196
GGACGGCA	0.0337
GTGTGACA	-0.00677
CGTGGCCA	-0.267
AATGCGCC	-0.0696
CCATTTTA	0.18
GGAAGGCA	0.482
ATAGTAGC	-0.196
ATTTCTCC	-0.213
AACTTTCT	-0.131
AAGGTGCC	0.334

Sequence	PBM E-score
ATCGCCGC	-0.13
GTCCGCGA	-0.275
CTGCAGCC	-0.223
CGACCACG	-0.112
GAGAATGA	-0.0118
ACGGCTTC	-0.114
GGCCTCCA	-0.181
GTTGATAA	0.25
ATCGAGTG	0.0548
ACTTGCCG	-0.189
GGAGCACC	-0.269
AAGCTGAA	-0.129
ATCAGGAC	-0.157
AGGTTTCG	-0.122
CTGACAAC	-0.0187
AGTATGGC	-0.156
ATTTAGTG	0.0618
CCTTAACA	0.315
AGGGGATA	-0.262
CCGCAATC	-0.0394
AGAGTCTC	-0.348
CGTAAACG	0.217
CTTGGGAC	-0.221
ATAGCACA	-0.0461
ACGGTTAC	0.0985

Sequence	PBM E-score
AGGTGTAT	0.0665
ATGATATA	0.0727
CTACTCCC	-0.109
ATACAAAT	0.118
CGATGAAG	-0.0712
AAGCATCG	-0.0126
ACCGATCT	-0.153
ATCTTCCG	-0.0782
ACTGTTGG	-0.221
ATTTCTTA	0.0956
GCCCCCGA	-0.326
AGACGAAT	-0.044
TAATAGCA	0.114
CAAATATG	0.0836
CTAACCAG	0.114
AAGACGAA	0.0821
ATCTCTCC	-0.133
TAATGCAA	0.211
CCCTTTAG	-0.102
CTACTAGA	-0.0908
CCGTAGGA	-0.159
CAGCGCTG	-0.025
AAACAGGA	0.291
GCCAACGC	0.0136
GATCAATC	-0.103

Sequence	PBM E-score
CGGGTTGC	-0.0651
GACCGCCC	-0.29
ACCGTTTC	0.0747
CTACCGTA	-0.0264
AAGTCTGT	0.137
CCGACAGC	-0.256
AAATAAAC	0.0227
ATACGAAG	-0.0096
GATCACCA	-0.17
ACGCAACA	0.242
CACCAGCA	-0.165
CTCAGCAC	0.0464
ACATCCGT	0.0788
ATGGCTGG	-0.14
ATCAAGGC	0.261
CCGGGGTC	-0.135
CCTTCGCA	0.0464
TACGCGTA	0.291
GTGGAGAA	-0.274
GTGATGCA	0.0593
GCTACCTA	0.0719
ACTACGAA	0.0106
GTTCCCTA	0.179
AAACGGCC	-0.0862
CCTGGAAA	0.154

Sequence	PBM E-score
CGGGTTGA	-0.197
ACAAAAGA	0.166
CTTCGTCC	-0.145
GAGCGGTA	-0.0867
CACGATGC	-0.0778
AACCATCT	-0.143
AGTTTAGG	0.0655
TAAAGCGA	0.1
ATGGGTAC	0.0147
AACGTCCG	-0.0926
GATCACTA	-0.191
CGATAATA	-0.0766
TAAATTTA	0.154
TCTTGTCA	0.0425
CGTCCGTC	-0.357
AGTCCGCA	-0.0253
AAACTACG	0.0222
AACTAAAA	0.108
CACTCCCA	-0.106
TGGTGTAA	0.186
ATTCGTCG	-0.0541
ATTACAAT	0.299
CGCATGAG	-0.157
AACGTATA	0.119
GCTGATAA	0.0326

Sequence	PBM E-score
GGACTACA	0.102
AATGCAGA	-0.00015
CCCCTCGC	-0.41
CGTTCGAA	-0.159
CATAGATC	-0.0706
CGGAAAAC	0.0409
CGTCTTAG	-0.0371
CGCTGTAG	-0.123
AACTCAGG	0.0371
ATAGCAGG	0.0115
GACCAGAC	-0.23
CGGTCCCC	-0.28
ACGCGGAG	0.105
GGGCCGTA	-0.224
AGGAGATA	-0.036
ATAATGAA	0.08
ATTTAGGA	0.115
AAGAGTCC	-0.325
GCCTCTGA	-0.0212
ACCCAGAA	0.118
AGGACTAC	-0.121
AAATTAGG	0.0359
